# Experimental data as given in PMC4336329 (PLoS ONE, 2015).
# The whole screen tested about 310,000 compounds, of which about 14,000 (4.5%) showed an effect of 50% or more. The effect is printed as a negative number. The list shows a part of the results. Where a SMILES comes first, the peptide text is derived from it. The star is where a group is joined. Cbz = O=C(OCc1ccccc1)*
# Biological target: human ether-à-go-go-related gene (hERG) potassium channel (human, UniProt Q12809)
# Assay: primary screen, population patch clamp on CHO cells stably expressing hERG
# 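Note: peak tail current of the secondary pulse compared with the same well before compound.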
# Chain of human ether-à-go-go-related gene (hERG) potassium channel (Q12809 whole entry, looked up): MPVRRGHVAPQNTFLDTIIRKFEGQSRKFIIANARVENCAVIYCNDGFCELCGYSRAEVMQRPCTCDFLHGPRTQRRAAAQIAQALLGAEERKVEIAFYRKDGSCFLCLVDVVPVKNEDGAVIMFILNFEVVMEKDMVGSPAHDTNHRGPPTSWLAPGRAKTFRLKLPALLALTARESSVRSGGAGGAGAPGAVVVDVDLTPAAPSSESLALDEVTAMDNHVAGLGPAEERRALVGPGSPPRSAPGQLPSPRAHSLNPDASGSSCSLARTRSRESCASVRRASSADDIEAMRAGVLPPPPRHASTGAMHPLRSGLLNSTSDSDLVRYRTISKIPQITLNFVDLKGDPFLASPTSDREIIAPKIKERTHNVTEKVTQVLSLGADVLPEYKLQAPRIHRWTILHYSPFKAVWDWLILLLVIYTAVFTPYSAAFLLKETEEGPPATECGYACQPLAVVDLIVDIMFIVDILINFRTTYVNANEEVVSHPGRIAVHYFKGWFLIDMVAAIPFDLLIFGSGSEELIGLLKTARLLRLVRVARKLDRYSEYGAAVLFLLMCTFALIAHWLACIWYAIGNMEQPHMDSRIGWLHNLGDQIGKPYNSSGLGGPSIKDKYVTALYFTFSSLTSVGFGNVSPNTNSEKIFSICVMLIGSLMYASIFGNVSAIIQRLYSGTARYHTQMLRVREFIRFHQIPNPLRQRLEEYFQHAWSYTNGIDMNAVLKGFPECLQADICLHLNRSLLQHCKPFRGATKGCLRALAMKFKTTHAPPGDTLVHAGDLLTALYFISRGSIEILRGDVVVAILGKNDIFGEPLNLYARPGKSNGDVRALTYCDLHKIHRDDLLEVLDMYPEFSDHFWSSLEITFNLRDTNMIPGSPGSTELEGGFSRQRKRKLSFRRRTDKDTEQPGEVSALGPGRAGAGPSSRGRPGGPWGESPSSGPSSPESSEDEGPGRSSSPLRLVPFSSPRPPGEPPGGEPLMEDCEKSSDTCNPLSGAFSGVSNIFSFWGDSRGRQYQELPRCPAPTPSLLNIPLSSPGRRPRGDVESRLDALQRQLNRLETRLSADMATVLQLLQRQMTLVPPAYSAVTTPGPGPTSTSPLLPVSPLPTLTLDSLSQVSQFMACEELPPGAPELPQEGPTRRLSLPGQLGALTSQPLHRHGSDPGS
row,SMILES,"hERG current change (%, negative = inhibition) at 10uM"
1,COc1cc(OC)c(C(=O)N/N=C/c2ccoc2)cc1OC,7.88%
2,O=c1[nH]cc(O)c(=O)[nH]1,9.49%
3,CC(C)c1ccc(C(=O)N2CCN(CCO)CC2)cc1.Cl,3.21%
4,CN1CCN(S(=O)(=O)c2ccc(Cl)nc2)CC1,5.86%
5,Cc1ccccc1-c1nnn(CC(=O)Nc2ccc3c(c2)OCCO3)n1,4.87%
6,CN(C1CCCCC1)S(=O)(=O)c1ccc2c(c1)c(=O)c(C(=O)N1CCc3ccccc3C1)cn2C,0.174%
7,CC(CNC(=O)C1CCCN(S(=O)(=O)N2CCOCC2)C1)c1ccccc1 (stereo not drawn),14.1%
8,COc1ccc(/C=N\NC(=O)c2cc(O)c(O)c(O)c2)cc1COc1ccc(C(=O)OCC(C)C)cc1,21%
9,CC(=O)N1CCN=C1SCc1ccccc1Cl,13%
10,Cc1cccc(OCC(=O)N/N=C2/SCC(=O)N2Cc2ccco2)c1,-25.4%
11,Cc1cc2ccccn2c1C(=O)c1nc(N2CCOCC2)ncc1Cl,-38.5%
12,CC1(C)O[C@@H]2C[C@H]3[C@@H]4CCC5=CC(=O)C=C[C@]5(C)[C@@]4(F)[C@@H](O)C[C@]3(C)[C@]2(C(=O)CO)O1,13.7%
13,CCc1c(C)nc2ncnn2c1Nc1ccc(C)cc1,-5.65%
14,Cc1cccc(-c2ncc(CN3CCCC(CO)(Cc4ccccc4C)C3)cn2)c1 (stereo not drawn),-11.4%
15,CC(=O)c1ccc(OCc2cc(C(=O)N3CCOCC3)no2)cc1,14.6%
16,COC(=O)C(CO)NC(=O)C1CCCN1C(=O)CNC(=O)OCc1ccccc1 (stereo not drawn) (Cbz-Gly-Pro-Ser-OMe; configuration not given here),23.5%
17,O=C(NC(=S)Nc1cccc(Cl)c1N1CCCC1)c1ccc(-c2cccc([N+](=O)[O-])c2)o1,27.7%
18,COc1ccc(C(=O)NC(=S)N2CCN(C)CC2)cc1Br,23.5%
19,Nn1c(SCc2cccc(Br)c2)nnc1-c1cccnc1,28.2%
20,Cc1ccc(C(=O)O/N=C(/c2nonc2N)N(C)C)cc1,2.33%
21,COc1ccc(-c2nnc3sc(-c4cccs4)nn23)cc1OC,-4.36%
22,Cc1cc2nc(CSc3ccc(Cl)cc3)cc(=O)n2[nH]1,-7.37%
23,Cc1ccc(N=C2NC(=O)CS2)cc1C,21.3%

row,SMILES,"hERG current change (%, negative = inhibition) at 10uM"
1,COc1ccc2[nH]c3c(=O)n(CCCC(=O)NC4CCCCC4C)c(=S)[nH]c3c2c1 (stereo not drawn),9.14%
2,Cc1nn(CC(=O)NCC(C)c2ccccc2)c(=O)c2cc3occc3n12 (stereo not drawn),-3.5%
3,CCc1ccccc1-n1nnnc1SCC(=O)Nc1ccc(N2CCN(C)CC2)cc1,-26.6%
4,CCNC(=S)N1CCN(c2ncccn2)CC1,2.38%
5,C/C(=N\n1cnnc1)c1ccc(C#N)cc1,26%
6,Cc1onc(-c2ccccc2)c1C(O)c1ccc(F)cc1 (stereo not drawn),23.8%
7,Fc1cccc(Oc2nc3ccccc3n3cccc23)c1,9.03%
8,Cc1ccc(S(=O)(=O)N(CC(=O)NCCC2=CCCCC2)Cc2ccccc2F)cc1,2.42%
9,CN(C)c1ccc(C(=S)N2CCN(C(=S)Nc3ccc(Cl)cc3)CC2)cc1,6.65%
10,O=C(N/N=C\c1ccccn1)C1c2ccccc2Oc2ccccc21,8.54%
11,Cc1[nH]c2ccccc2c1/C=N/NC(=O)c1ccc(N)cc1,11.2%
12,CCOc1cc(S(=O)(=O)NC2CC(C)(C)NC(C)(C)C2)ccc1Cl,6.46%
13,CCCCn1c(N)c(N(Cc2ccccc2OC)C(=O)CN2C(=O)NC(C)(c3ccccc3)C2=O)c(=O)[nH]c1=O (stereo not drawn),17.7%
14,COc1ccc(O)c(/C=N/NC(=O)CCC(=O)Nc2ccc(F)cc2)c1,0.85%
15,O=C(NCCCN1CCCC1=O)c1cccnc1,15.3%
16,Cc1ccc(SCc2noc(C(=O)NCC3CCCO3)c2C(=O)O)cc1C (stereo not drawn),12.1%
17,Cc1cc(NC(=O)c2ccc(NC(=O)c3cccs3)cc2)no1,-17%
18,COc1ccc(NC(=O)CSc2nc3ccsc3c(=O)n2CCCCCC(=O)O)cc1,29.3%
19,O=c1cc(O)nc2n1CCCS2,18.7%
20,CCOc1ccc2cc(C#N)c(SCC(=O)N3CCOCC3)nc2c1,12%
21,CCOC(=O)N1CCC(NC(=O)C2=CCN(S(=O)(=O)c3ccc(F)cc3)CC2)CC1,-7.1%
22,CC(CN1CCN(C)CC1)OC(=O)c1ccccc1Cl (stereo not drawn),2.44%
